The values below come from the supplement of paper PMC3334620.

In all, about 33,000 sequences were measured (“E-score (-0.5 to 0.5)”: median about -0.016, highest 2% from about 0.32 on). The list shows a part of the results.

The target of this test is T1, Stp1 (UniProt B3LFK1).
T1 sequence: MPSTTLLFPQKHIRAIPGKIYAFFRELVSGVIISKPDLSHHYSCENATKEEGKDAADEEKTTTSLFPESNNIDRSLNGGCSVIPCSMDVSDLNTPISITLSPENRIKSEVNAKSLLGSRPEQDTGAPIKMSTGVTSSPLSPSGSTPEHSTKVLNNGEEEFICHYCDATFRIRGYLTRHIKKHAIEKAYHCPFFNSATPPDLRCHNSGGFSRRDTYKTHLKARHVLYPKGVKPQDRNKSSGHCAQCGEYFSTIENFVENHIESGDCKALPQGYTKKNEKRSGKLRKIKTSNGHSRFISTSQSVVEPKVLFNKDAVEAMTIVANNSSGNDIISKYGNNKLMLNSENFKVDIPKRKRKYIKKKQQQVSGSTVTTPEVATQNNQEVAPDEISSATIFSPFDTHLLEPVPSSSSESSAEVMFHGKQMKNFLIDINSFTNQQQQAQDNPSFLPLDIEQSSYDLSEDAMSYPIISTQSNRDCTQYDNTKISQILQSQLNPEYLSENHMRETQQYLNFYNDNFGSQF
Nature of the test: PBM E-score (8-mer binding enrichment) (E-score (-0.5 to 0.5)); higher = stronger / more preferred TF binding; most listed sequences are background and not binding sites. To be noted: protein concentration: 200 nM; construct: GST-full length. The essentials:
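Full-length yeast transcription factors or their DNA-binding domains, GST-tagged and expressed with PURExpress, were applied at about 100-200 nM to universal all-10-mer Agilent arrays. These arrays had been made double-stranded by primer extension on fresh or once-stripped slides. Detection used fluorescent anti-GST, normalisation used masliner, and E-scores for ungapped eight-base words pooled with reverse complements came from the Universal PBM Analysis Suite.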
As to ATCATTCC, the “PBM E-score” value came out at 0.00642.

In the case of GACCCCCA, the “PBM E-score” value was -0.352.

As for CCTCAACG, the “PBM E-score” value was -0.182.

CTACAAAC: the “PBM E-score” value is 0.062.

For GATGTGGA, the “PBM E-score” value was -0.051.

Take GAATCCGA: the “PBM E-score” value is 0.13.

As for AGGTGAAC, the “PBM E-score” value is -0.0912.

Take ACCTAACT: the “PBM E-score” value turned out to be 0.0768.

For the sequence CTTCGTAC, the “PBM E-score” value is -0.0412.

Turning to AACAATCT, the “PBM E-score” value came out at 0.0449.

Take TGACATAA: the “PBM E-score” value stood at 0.155.

With ACCATTAT, the “PBM E-score” value stood at 0.108.

Turning to CGCGTCGC, the “PBM E-score” value was 0.128.

For the sequence AAGGTAAA, the “PBM E-score” value was 0.105.

As for CACGATGG, the “PBM E-score” value is -0.0468.

For GCACCTAA, the “PBM E-score” value was 0.0243.

In the case of AGTCGGTG, the “PBM E-score” value is -0.266.

On to AATGCGAG, for which the “PBM E-score” value is -0.0522.

Turning to AGAAGTGG, the “PBM E-score” value is -0.141.

TATTAACA: the “PBM E-score” value amounted to 0.185.

With TAAACGAA, the “PBM E-score” value was found to be 0.154.

Consider ACATGTAT, for which the “PBM E-score” value was found to be 0.0569.

On to CGCAAGCA, for which the “PBM E-score” value was -0.106.

For CGCCCTCA, the “PBM E-score” value is -0.271.

Take ATGAAGGC: the “PBM E-score” value worked out at 0.0786.

Consider CTTAACCA, for which the “PBM E-score” value amounted to 0.125.

Turning to AGATGACC, the “PBM E-score” value is -0.0479.

On to GGACTAGA, for which the “PBM E-score” value was -0.105.

On to ACGCGAAT, for which the “PBM E-score” value is -0.00535.

For the sequence CATGTGAC, the “PBM E-score” value was 0.025.

For the sequence AACATAGA, the “PBM E-score” value is -0.151.

Turning to AACTTCTT, the “PBM E-score” value is 0.0454.

On to ACCGCAGG, for which the “PBM E-score” value worked out at 0.128.

On to CGTGCGAA, for which the “PBM E-score” value turned out to be 0.193.

Take GCCTTCGC: the “PBM E-score” value was 0.226.

In the case of CCATATCC, the “PBM E-score” value is -0.0577.

Take AGGGCGAT: the “PBM E-score” value is 0.0677.

Turning to AGCAGACT, the “PBM E-score” value came to 0.0691.

Consider TATATACA, for which the “PBM E-score” value worked out at 0.1.

As to ACCCGGCG, the “PBM E-score” value is -0.0191.

As for ACCCAAAA, the “PBM E-score” value stood at 0.103.

As to GGTACGTA, the “PBM E-score” value was -0.147.

CAAGGCAA: the “PBM E-score” value is 0.264.

For the sequence CGCCTGAA, the “PBM E-score” value is 0.265.

With ACAATGAC, the “PBM E-score” value was -0.0406.

As for GAATTTAC, the “PBM E-score” value is 0.124.

Turning to ATAGGTCA, the “PBM E-score” value was determined as 0.00783.

Turning to AGGGGGTG, the “PBM E-score” value is -0.456.

As for CACACCCC, the “PBM E-score” value is -0.296.

As to ACATACGT, the “PBM E-score” value was 0.0537.

As for CAGACTGA, the “PBM E-score” value is -0.0583.

For CTATTTCC, the “PBM E-score” value turned out to be 0.125.

Regarding GCTCGAGC, the “PBM E-score” value is 0.0111.

On to AATAACTG, for which the “PBM E-score” value was determined as 0.0806.

ACGGGAAA: the “PBM E-score” value turned out to be 0.178.

Take GACAAGGC: the “PBM E-score” value amounted to 0.186.

For ACAGGCTG, the “PBM E-score” value was -0.222.

For the sequence GAATTGAA, the “PBM E-score” value is -0.00546.

Consider CTAGCCTC, for which the “PBM E-score” value was -0.162.

ACCAGTGA: the “PBM E-score” value is -0.0469.

Consider GGCGTGAA, for which the “PBM E-score” value turned out to be 0.156.

For ACTGAGCG, the “PBM E-score” value came out at 0.0212.

Take AAGTCCAC: the “PBM E-score” value was -0.117.

Consider GCGTATCA, for which the “PBM E-score” value was determined as 0.221.

For CAGCGGCA, the “PBM E-score” value was 0.3.

Regarding AATCGGAC, the “PBM E-score” value was -0.167.

Take CCACTGTA: the “PBM E-score” value is -0.0895.

For the sequence ACGAATGA, the “PBM E-score” value came out at 0.0426.

On to GGCTACAA, for which the “PBM E-score” value worked out at 0.0408.

Regarding TGACAGCA, the “PBM E-score” value came out at 0.101.

Regarding CACACTAG, the “PBM E-score” value is -0.0211.

In the case of ACGACGTG, the “PBM E-score” value came out at 0.0302.

On to CGACTTGA, for which the “PBM E-score” value is -0.146.

Consider GCGGCATA, for which the “PBM E-score” value stood at 0.435.

Consider AACTCCTC, for which the “PBM E-score” value was -0.139.

On to CCGCCGTC, for which the “PBM E-score” value turned out to be 0.255.

Consider GCCCTACC, for which the “PBM E-score” value was -0.0429.

On to ATGGAGCA, for which the “PBM E-score” value came to 0.055.

Turning to GTTCAAGA, the “PBM E-score” value was determined as 0.0574.

In the case of ATCGGAAA, the “PBM E-score” value came out at 0.00784.

Turning to GCCTACCC, the “PBM E-score” value was -0.186.

For the sequence CGCGCAGA, the “PBM E-score” value amounted to 0.22.

With ATGGTGGG, the “PBM E-score” value was -0.164.

In the case of AGGACATC, the “PBM E-score” value was 0.103.

As to CAGGCGAG, the “PBM E-score” value is -0.17.

As for TAATGAAA, the “PBM E-score” value came out at 0.106.

Take TACTTACA: the “PBM E-score” value came out at 0.0685.

Regarding AACCTTAG, the “PBM E-score” value was -0.109.

Regarding AACTCTCG, the “PBM E-score” value was -0.222.

As to TGTGCTAA, the “PBM E-score” value came to 0.0547.

Take GGACTTTA: the “PBM E-score” value was -0.121.

Turning to TAAATACA, the “PBM E-score” value was determined as 0.194.

For TCGTGAAA, the “PBM E-score” value is -0.101.

Regarding GGACCCGA, the “PBM E-score” value was -0.149.
